# Experimental data taken from PubChem BioAssay AID1347073 (National Center for Advancing Translational Sciences (NCATS), 2019).
# The whole screen tested about 45,000 compounds, of which about 200 (0.44%) were called active. Another 7% or so got no clear call; they are omitted. Calls follow the shape of the dose curve; as a rule, active = well fitted activation curve with a large enough effect; inconclusive = small, poorly fitted or top-dose-only effect; inactive = no such curve, though single readings can be large or run the other way. Some of the results follow.
# Test: qHTS of TDP-43 Inhibitors: NCGC Sytravon Library Screen; also: 0% is about no effect; nearly all actives have a fitted effect of over 55% in size
# Details: yeast TDP-43 toxicity rescue, BacTiter-Glo growth, 24 h; series mostly up to 46.1 µM; growth rescue (activation): at the top concentration
# In short: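 TDP-43-expressing yeast, pregrown in raffinose, seeded at OD600 0.02 in galactose medium with compound for 24 hr at 30 deg C. Growth read by BacTiter-Glo luminescence, so rescue of toxicity appears as activation.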
row,SMILES,growth rescue (activation)
1,Cc1ccc(NC(=S)NNC(=O)c2ccccc2O)c(C)c1,inactive: 14.1%
2,COc1cccc(NC(=O)CN(C)CC(=O)Nc2ccc3c(c2)OCO3)c1,inactive: 3.42%
3,CCOC(=O)N1CCC(N(CCN(C)C)C(=S)Nc2ccc(Oc3ccccc3)cc2)CC1,inactive: -17.7%
4,CN(C)CCCN1C(=O)C(=O)/C(=C(/O)c2ccncc2)C1c1ccccc1 (centres undefined),inactive: 1.64%
5,Cc1ccc(S(=O)(=O)N(C)c2ccc(C(=O)NCc3ccccn3)cc2)cc1,inactive: 2.83%
6,CCCN1C(=O)/C(=C\C=C2/Sc3ccccc3N2CCO)SC1=S,inactive: 3.47%
7,COC(=O)CN(C(=S)Nc1ccc(F)cc1)C1CC(=O)N(c2ccccc2)C1=O (centres undefined),inactive: -46.4%
8,Cc1cccc(N(C)S(=O)(=O)c2ccc3c(c2)NC(=O)CC(=O)N3)c1,inactive: -1.81%
9,Cc1cc(C)nc(Nc2nc(C(N)Cc3ccccc3)cs2)n1 (centres undefined),inactive: 12.4%
10,CCn1c(SCc2ccccc2F)nnc1-c1ccncc1,inactive: 19.7%
11,COc1ccc(/C=C(\C#N)C(=O)OCC(=O)N2CC(C)OC(C)C2)cc1 (centres undefined),inactive: 1.18%
12,Clc1ccc(OCCCCCN2CCOCC2)cc1,inactive: 6.44%
13,COc1ccccc1-n1nc(C)cc1N,inactive: -6.56%
14,O=C(O)CC(c1cccc(C(F)(F)F)c1)N1CCS(=O)(=O)CC1 (centres undefined),inactive: -11.6%
15,COc1ccc(C(C)=O)cc1CC(=O)Nc1ccc2c(c1)CCC2,inactive: -4.52%
16,COc1ccc(OCC(=O)NCCNC(=O)c2ccccn2)cc1,inactive: -2.8%
17,Cc1ccc(C)c(N(CC(=O)NC2CCCCC2)C(=O)c2snc(C(N)=O)c2N)c1,inactive: 15.6%
18,CCOC(=O)C1CCCN(C(=O)c2cc(S(=O)(=O)Nc3ccccc3OC)ccc2C)C1 (centres undefined),inactive: 18.2%
19,COc1ccc(CN2CCNC(=O)C2CC(=O)N(C)Cc2nc(C)cs2)c(OC)c1 (centres undefined),inactive: -3.97%
20,CCCCS(=O)(=O)NC(=O)C1(C)CCN1C(=O)C/C=C/c1ccccc1 (centres undefined),inactive: -2.43%
21,CC(C)c1nnc(NC(=O)C2CCCN2C(=O)Nc2ccc(F)cc2)s1 (centres undefined),inactive: -5.33%
22,Cc1cccc(N2CC(C(=O)NC3CCCCCC3)CC2=O)c1C (centres undefined),inactive: 28.2%
23,CCOCCCn1c(=S)[nH]c2cc(C(=O)NCCCN(CC)CC)ccc2c1=O,inactive: 14.8%
24,COc1cc(C(=O)Nc2ccc(NC(=O)c3cccc(Cl)c3)nc2)cc(OC)c1OC,inactive: 4.4%
25,CSc1cccc(NC(=S)N2CCCN(Cc3cccc(Cl)c3)C2)c1,inactive: 6.46%
26,O=C(N/N=C/c1ccccc1O)C(=O)Nc1ccccn1,inactive: 28.1%
27,Cc1nn(Cc2ccc(C(=O)NN)cc2)c(C)c1Cl,inactive: 22.4%

row,SMILES,growth rescue (activation)
1,CSc1ccc(CN2C(=O)NC3(CCCCCCC3)C2=O)cc1,inactive: 8.34%
2,O=C(NCC1CCCCC1)c1ccc2nc([C@H]3C[C@H](O)[C@@H](CO)O3)[nH]c2c1,inactive: 1.22%
3,COc1ccc(N(CC(=O)NC2CCCCC2)C(=O)CCC(=O)Nc2nc(C)cs2)cc1OC,inactive: -5.07%
4,COc1ccc(C(=O)CC(=O)c2ccccc2O)cc1OC,inactive: 9.48%
5,Cc1cccc(-n2c(C)cc(/C=C3/C(=N)N4C(c5ccccc5)=CSC4=NC3=O)c2C)c1,inactive: -0.464%
6,CC(C)(C)NC(=O)COC(=O)c1ccccc1Nc1ccc(SC(F)F)cc1,inactive: -5.26%
7,COCCNc1nc(N)c([N+](=O)[O-])c(NCc2ccccc2)n1,inactive: 15.9%
8,Cc1ccc(S(=O)(=O)N/N=C\c2ccc3c(c2)OCO3)cc1C,inactive: -16.1%
9,COc1ccc(-c2cn(-c3ccc(C)cc3)c(=O)n2CC(=O)Nc2ccc(OC)c(OC)c2)cc1,inactive: -9.94%
10,COc1ccc(N2CCN(CC(O)COC(c3ccccc3)c3ccccc3)CC2)cc1 (centres undefined),inactive: 8.25%
11,COC(=O)c1ccc(CNC(=O)C2CCC(=O)N(Cc3cccc(F)c3)C2)cc1 (centres undefined),inactive: 10.4%
12,O=C(N/N=C/c1ccc2c(c1)OCO2)c1ccc(NC(=O)c2ccc(F)cc2)cc1,inactive: 11.9%
13,Cc1cc(/C=N/N2CCN(C)CC2)c(C)n1-c1ccc(Cl)cc1,inactive: 25.9%
14,COc1ccc(S(=O)(=O)Nc2ccc(C)cn2)cc1,inactive: -28.5%
15,COc1ccc(Cc2nnc(SCC(=O)Nc3ccc(N4CCOCC4)cc3)o2)cc1,inactive: 7.78%
16,CC1(C(=O)Nc2cccc3c2CCCC3)CCN1C(=O)C1(c2ccccc2)CC1 (centres undefined),inactive: 17.1%
17,COc1ccccc1NC(=O)CN1CCN(CC(=O)Nc2ccc(C)c(F)c2)CC1,inactive: 1.33%
18,CCOc1ccc(NC2=CC(=O)CCC2)cc1,inactive: -8.33%
19,Cc1cccc(C(=O)n2cnnc2N)c1,inactive: 6.66%
20,CCOC(=O)c1cc(NC(=O)C2C3C=CC(O3)C2C(=O)O)cc(C(=O)OCC)c1 (centres undefined),inactive: 1.45%
21,O=C(CSc1nnc(Nc2ccccc2F)s1)NCC1CCCO1 (centres undefined),inactive: 1.09%
22,Cc1csc(NC(=O)c2cc(-c3ccncc3)nc3ccccc23)n1,inactive: 4.7%
23,O=Cc1cnc(N2CCCCC2)s1,inactive: -0.698%
24,Cc1cccnc1NC(=O)C1CCN(S(=O)(=O)c2c(C)noc2/C=C/c2ccco2)CC1,inactive: 7.82%
25,CC(C)n1ncc2c(C(=O)NCCOc3ccccc3F)cc(C3CC3)nc21,inactive: 21.2%
26,O=C(CCC1CCCC1)Nc1cccc(Cc2ccncc2)c1,inactive: 9.44%
27,CC(C)CC1=NN(C(=O)c2ccco2)C(O)(C(F)(F)F)C1 (centres undefined),inactive: 0.39%
